Among the data in US20250255960A1 (HRAIN BIOTECHNOLOGY, published 2025) are EC50 values, retold here.

Positions count from the first letter of the chain named.

First the molecules themselves.
T1: recombinant human CD70-alFc protein (human; alpaca, UniProt P32970 39-193)
T1 construct: range 39-193; Made in 293T cells; also called CD70-alIgG1Fc fusion protein; recombinant human CD70 protein
T1 sequence: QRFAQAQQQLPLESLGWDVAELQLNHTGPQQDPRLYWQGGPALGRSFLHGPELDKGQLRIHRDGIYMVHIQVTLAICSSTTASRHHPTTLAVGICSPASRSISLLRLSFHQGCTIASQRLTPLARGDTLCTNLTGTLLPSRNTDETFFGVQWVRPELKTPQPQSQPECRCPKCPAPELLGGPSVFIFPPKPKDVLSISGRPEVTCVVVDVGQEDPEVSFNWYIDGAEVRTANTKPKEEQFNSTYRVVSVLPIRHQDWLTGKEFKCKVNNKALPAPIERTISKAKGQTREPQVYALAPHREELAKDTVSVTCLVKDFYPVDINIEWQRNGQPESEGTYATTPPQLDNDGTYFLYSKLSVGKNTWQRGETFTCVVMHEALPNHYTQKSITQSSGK

B1: CD70-9D8 VHH-huIgG1-Fc (Fc fusion, human)
heavy: QLQLVESGGGLVQPGGSLRLSCAVSGRTSSTYAMAWFRQAPGKEREIVAVITWSGGRTAYADSVKGRFTIAKDSAKNTVYLQMNSLKPEDTAVYYCAADSEVSSSSEGQYGYESWGQGTQVTVSS[letters of human IgG1 Fc left out]
notes: domain: IgG1-Fc; Recombinant VHH-huIgG1-Fc made in 293F cells; also called VHH-huFc antibody CD70-9D8
B2: CD70-8B4 VHH-huIgG1-Fc (Fc fusion, human)
heavy: EVQLVESGGGFVQPGGSLRLSCAASGFTLDGYAVAWFRQAPGKEREGVSCISSSDGSTYYIDSVQGRFTITRNNAKNTVYLQMNSLKPEDTAVYYCTTDVLTSCRSDRWLEVWGQGTLVTVSS[letters of human IgG1 Fc left out]
notes: domain: IgG1-Fc; Recombinant VHH-huIgG1-Fc made in 293F cells; also called VHH-huFc antibody CD70-8B4
B3: CD70-2A5 VHH-huIgG1-Fc (Fc fusion, human)
heavy: EVQLVESGGGLVQAGGSLRLSCAASGSIFSINAMGWYRQAPGKQRELVAAITSGGSTNYADSVKGRFTISRDNAKNTVYLQMNSLKPEDTAVYYCNAGAGRAFPGDYWGQGTQVTVSS[letters of human IgG1 Fc left out]
notes: domain: IgG1-Fc; Recombinant VHH-huIgG1-Fc made in 293F cells; also called VHH-huFc antibody CD70-2A5
B4: CD70-8A6 VHH-huIgG1-Fc (Fc fusion, human)
heavy: B3 heavy with L4V, A14P, G26R, A97S, Q113L
notes: domain: IgG1-Fc; Recombinant VHH-huIgG1-Fc made in 293F cells
B5: CD70-5C10 VHH-huIgG1-Fc (Fc fusion, human)
heavy: B3 heavy with E1Q, I31M, A60V
notes: as for B4
B6: CD70-8E1 VHH-huIgG1-Fc (Fc fusion, human)
heavy: B3 heavy with E1Q, S7T, S27N, I31N, G54D, A60V, Y79L, Q113L
notes: as for B4
B7: CD70-8F9 VHH-huIgG1-Fc (Fc fusion, human)
heavy: QLQLVESGGGLVQAGGSLRLSCAVSGRTSSTYAMAWFRQAPGKEREIVAVIGWSGGRTAYADSVKGRFTIAKDNAKNTVSLQMNSLKPEDTGVYYCAADSEQSSSSEGQAYGYEDWGQGTLVTVSS[letters of human IgG1 Fc left out]
notes: as for B4
B8: CD70-11C9 VHH-huIgG1-Fc (Fc fusion, human)
heavy: QVQLVESGGGLVQPGGSLRLSCAASGFTLDYYAVGWFRQAPGKEREGVSCISSSSDGSTYYVDSVLGRFTISRNNAENTVYLQMNSLKPEDTAVYYCSTDVLTSCRSDRYLEVWGQGTLVTVSG[letters of human IgG1 Fc left out]
notes: domain: IgG1-Fc; Recombinant VHH-huIgG1-Fc made in 293F cells; also called VHH-huFc antibody CD70-11C9

In this assay the target is T1, recombinant human CD70-alFc protein. The assay can be described thus: ELISA; 100 ng/well recombinant human CD70 protein coated, VHH-huFc in gradient dilution. The method, then:
The specific operation of the ELISA experiment is as follows: 100 ng/well of the recombinant human CD70 protein prepared above was added to the microtiter plate, and coated overnight at 4° C. Washed three times with PBS, 1% BSA/PBS was added, 200 μL/well, then the above microtiter plate was blocked at 37° C. for 1 hour. After washing the plate with 100 μL of PBS, the above four scFv proteins were added in gradient dilution, and combined at 37° C. for 1 hour. Washed three times with PBST, 100 μL of 1:5000 diluted HRP-goat anti-human IgG (Fab specific) was added, and bound for 1 hour at 37° C. Washed with PBST three times, 100 μL/well TMB chromogen solution was added for development at 37° C. for 10 minutes, 100 μL/well ELISA stop solution was added, the absorbance value at OD₄₅₀ was obtained with microplate reader, the results are shown by FIG. 7 and Table 3.
(In an ELISA, binding on a coated surface is turned into a signal by an enzyme label.)
Take B1: the 50% effective concentration (EC50) (commonly the concentration that produces a half-maximal response) was found to be 4.97 ng/mL.

In the case of B2, the 50% effective concentration (EC50) worked out at 5.95 ng/mL.

Turning to B3, the concentration giving a half-maximal response (EC50) came to 5.55 ng/mL.

As for B4, the EC50 was 8.73 ng/mL.

Consider B5, for which the 50% effective concentration (EC50) was 5.29 ng/mL.

Consider B6, for which the EC50 turned out to be 7.05 ng/mL.

As for B7, the EC50 is 8.48 ng/mL.

With B8, the EC50 is 7.38 ng/mL.
